Data as given in PubChem BioAssay AID504832 (National Center for Advancing Translational Sciences (NCATS), 2011).
The campaign covered roughly 310,000 compounds. About 18,000 (5.8%) were called active. The inconclusive results got no clear call from the source; some entries with a clear call stand among them for comparison. Calls come from the whole dose curve; as a rule, active = well fitted inhibition curve with a large enough effect; inconclusive = small, poorly fitted or top-dose-only effect, or another doubt; inactive = no such curve, though single readings can be large or run the other way. Potencies of inconclusive entries are left out as doubtful fits.

assay: Primary qHTS for delayed death inhibitors of the malarial parasite plastid, 48 hour incubation; conditions: P. falciparum luciferase growth in erythrocytes; series mostly up to 28.7 µM; activity change, negative = inhibition: at the top concentration
Procedure, shortened: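 Here the parasites carry a stable luciferase gene and grow inside erythrocytes in Albumax-based RPMI medium with compound for one erythrocytic cycle. Activity is scored as loss of luminescent signal.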
% is set by controls: 0 for no effect and ±100 for the full control effect; potency is the fitted concentration of half-maximal effect; tags give direction and shape of the fitted curve.

**Q.** Which Potency does the source give for `Cc1cc(/C=N/n2cnnc2)c(C)n1-c1ccc(OCc2ccccc2F)cc1` here?
**A.** inconclusive [inhibitor, single point]

**Q.** Which “activity change, negative = inhibition” value does the source give for `CCOC(=O)c1ccc(NC(=S)NCCc2ccc(F)cc2)cc1` here?
**A.** inactive: -4.75%

**Q.** With `CCCCc1c(C)nc2cc(-c3ccco3)[nH]n2c1=O` as the compound, how does the Potency read?
**A.** inconclusive [inhibitor, partial curve, poor fit]

**Q.** For `Cc1ccc(-n2nc(C)c3c2NC(=O)CSC3c2ccc3c(c2)OCO3)cc1` (stereo not drawn), which Potency is on record?
**A.** inconclusive [inhibitor, single point]

**Q.** With `COc1ccc(-c2nc(NCCCN(C)C)c3ccccc3n2)cc1` as the compound, how does the Potency read?
**A.** inconclusive [inhibitor, full curve, poor fit]

**Q.** With `CC1CCCN(CCCNC(=O)c2cc3c(Cl)nc4ccccc4c3s2)C1` (stereo not drawn) as the compound, how does the Potency read?
**A.** inconclusive [inhibitor, partial curve]

**Q.** For `Cc1cccc(N(CC(=O)N2CCCCCC2)S(C)(=O)=O)c1`, which “activity change, negative = inhibition” value is on record?
**A.** inactive: 11.2%

**Q.** With `CCc1cccc(CC)c1NC(=S)NCCc1c(C)[nH]c2ccc(C)cc12` as the compound, how does the Potency read?
**A.** inconclusive [inhibitor, partial curve, poor fit]

**Q.** With `CCN(CC)C(=S)NC(=O)c1ccc(OC)c(Br)c1` as the compound, how does the Potency read?
**A.** inconclusive [inhibitor, partial curve]

**Q.** For `CCN(CC)CCCNc1cc(C)nc2cc(-c3cccs3)nn12`, which Potency is on record?
**A.** inconclusive [inhibitor, partial curve, poor fit]

**Q.** With `O=C1CCN(S(=O)(=O)c2ccccc2)CCN1CCOCc1ccccc1` as the compound, how does the “activity change, negative = inhibition” value read?
**A.** inactive: -5.74%

**Q.** With `CCOc1ccc(CNC(=S)N/N=C\c2ccc([N+](=O)[O-])cc2)cc1` as the compound, how does the Potency read?
**A.** active: 13.1 µM

**Q.** With `CCOC(=O)c1ccc(NC(=O)N(CC)CC)cc1` as the compound, how does the “activity change, negative = inhibition” value read?
**A.** inactive: 110%

**Q.** For `Oc1c(C(c2cccs2)N2CCN(c3ccccc3)CC2)ccc2cccnc12` (stereo not drawn), which Potency is on record?
**A.** inconclusive [inhibitor, partial curve, poor fit]

**Q.** Which Potency does the source give for `Cc1ccc2c(C)c(C(=O)N3CCN(Cc4ccc5c(c4)OCO5)CC3)oc2c1C` here?
**A.** inconclusive [inhibitor, partial curve, poor fit]

**Q.** Which “activity change, negative = inhibition” value does the source give for `Fc1ccccc1N1CCN(C2CCCN(Cc3ccccc3C(F)(F)F)C2)CC1` (stereo not drawn) here?
**A.** inactive: 0%

**Q.** For `CC(=O)c1ccc(Nc2nc3ccccc3nc2NS(=O)(=O)c2cccs2)cc1`, which Potency is on record?
**A.** inconclusive [inhibitor, partial curve]

**Q.** With `O=c1nc2n(c3c4c(sc13)CCC4)CCC2` as the compound, how does the “activity change, negative = inhibition” value read?
**A.** inactive: 35.2%

**Q.** Which “activity change, negative = inhibition” value does the source give for `Cc1ccccc1NC(=O)NNC(=O)COc1ccc2ccccc2c1` here?
**A.** inactive: -2.57%

**Q.** Which Potency does the source give for `COc1ccc(Cl)cc1NC(=O)NCCN1CCNC1=O` here?
**A.** inconclusive [inhibitor, partial curve, poor fit]

**Q.** Which Potency does the source give for `CCOC(=O)c1ccccc1NC(=O)CN(c1cccc(OC)c1)S(C)(=O)=O` here?
**A.** inconclusive [inhibitor, partial curve]

**Q.** For `COc1ccc(CCNC(=O)c2sc3cc(C)ccc3c2Cl)cc1`, which Potency is on record?
**A.** inconclusive [inhibitor, partial curve, poor fit]

**Q.** Which “activity change, negative = inhibition” value does the source give for `Cc1cccc(C)c1NC(=S)N(CCN(C)C)Cc1cccs1` here?
**A.** inactive: -3.24%

**Q.** Which Potency does the source give for `O=C1/C(=C\c2cc(Br)cc(Br)c2O)SC(=S)N1Cc1ccccc1` here?
**A.** inconclusive [inhibitor, partial curve, poor fit]

**Q.** Which Potency does the source give for `O=C1c2ccccc2C(=O)c2c(NCc3cccnc3)cccc21` here?
**A.** inconclusive [inhibitor, full curve, poor fit]

**Q.** For `CCCCOc1ccc(CSCCN=C(N)N)cc1`, which Potency is on record?
**A.** inconclusive [inhibitor, single point]

**Q.** With `Cc1ccc(OCC(=O)N(C)CC(=O)NCc2ccco2)c(Br)c1` as the compound, how does the Potency read?
**A.** inconclusive [inhibitor, single point]

**Q.** With `O=C(O)CN1C(=O)C(=O)N(Cc2ccc(Cl)c(Cl)c2)C1=O` as the compound, how does the “activity change, negative = inhibition” value read?
**A.** inactive: -3.21%

**Q.** For `CC(C)(CO)NC(=O)C(Cc1ccccc1)N1C(=O)c2ccccc2C1=O` (stereo not drawn), which “activity change, negative = inhibition” value is on record?
**A.** inactive: 16.2%

**Q.** For `CCOC(=O)c1c(C)oc2c(CN3CCN(C)CC3)c(Br)c(OC)c(O)c12`, which “activity change, negative = inhibition” value is on record?
**A.** inactive: 29.6%

**Q.** Which Potency does the source give for `CCCc1cc(=O)n2[nH]cc(-c3ccc(Cl)cc3)c2n1` here?
**A.** inconclusive [inhibitor, single point]

**Q.** With `COc1cccc(-c2nnc(NC(C)=O)o2)c1` as the compound, how does the “activity change, negative = inhibition” value read?
**A.** inactive: -0.707%

**Q.** Which “activity change, negative = inhibition” value does the source give for `COc1ccc(Cc2nnc(NC(=O)c3ccccc3)s2)cc1OC` here?
**A.** inactive: 24.3%

**Q.** With `CCOc1cc(/C=C2\C(=N)N3N=CSC3=NC2=O)ccc1OS(=O)(=O)c1ccccc1` as the compound, how does the “activity change, negative = inhibition” value read?
**A.** inactive: 4.45%

**Q.** Which Potency does the source give for `COc1ccc(C(=O)Nc2cccnc2Sc2ccc(Cl)cc2)cc1` here?
**A.** inconclusive [inhibitor, partial curve, poor fit]

**Q.** With `Cc1cccc2c1NC(C)CC2C` (stereo not drawn) as the compound, how does the Potency read?
**A.** inconclusive [inhibitor, partial curve, poor fit]

**Q.** Which Potency does the source give for `O=C(NC(=S)Nc1cccc2c(O)cccc12)c1ccco1` here?
**A.** inconclusive [inhibitor, partial curve, poor fit]

**Q.** For `CC(=O)c1ccc(-n2c(=O)[nH]c(=O)c3c(N)c(C(=O)c4ccc(Cl)cc4)sc32)cc1`, which Potency is on record?
**A.** inconclusive [inhibitor, single point]

**Q.** With `O=C1/C(=C/c2ccccc2)SC(=S)N1CCCC(=O)N1CCCCC1CCO` (stereo not drawn) as the compound, how does the Potency read?
**A.** inconclusive [inhibitor, single point]

**Q.** With `CCOC(=O)C1CCCN(S(=O)(=O)c2ccc3c4c(cccc24)C(=O)N3CC)C1` (stereo not drawn) as the compound, how does the Potency read?
**A.** active: 10.4 µM

**Q.** For `O=C(CSc1ncn[nH]1)Nc1cc(S(=O)(=O)N2CCCC2)ccc1Cl`, which “activity change, negative = inhibition” value is on record?
**A.** inactive: -14%

**Q.** For `COc1ccc(-c2noc(CN3CCN(C(=O)c4cccs4)CC3)n2)c(OC)c1OC`, which “activity change, negative = inhibition” value is on record?
**A.** inactive: -1.54%

**Q.** For `CCN(CC)c1ccc(C=Nc2ccc(N(C)C)cc2)c(O)c1`, which Potency is on record?
**A.** inconclusive [inhibitor, full curve, poor fit]

**Q.** For `O=C(CCSc1nnc(-c2ccco2)o1)Nc1ccc(Cl)cc1`, which “activity change, negative = inhibition” value is on record?
**A.** inactive: -3.22%

**Q.** With `CCCCc1cc(=O)oc2c(CN3CCCC3)c(O)ccc12` as the compound, how does the Potency read?
**A.** inconclusive [inhibitor, single point]

**Q.** Which Potency does the source give for `O=C(/C=C/c1ccccc1Cl)NCCc1ccc(F)cc1` here?
**A.** active: 4.65 µM

**Q.** For `COc1cc(OC)cc(C(=O)Nc2ccc(C(=O)c3ccncc3)cc2)c1`, which “activity change, negative = inhibition” value is on record?
**A.** inactive: 27.1%

**Q.** With `CC1CCC(n2c(=S)[nH]c3ccccc3c2=O)CC1` (stereo not drawn) as the compound, how does the Potency read?
**A.** inconclusive [inhibitor, partial curve, poor fit]

**Q.** With `COc1ccc(OC)c(-c2nn(-c3ccccc3)cc2C(=O)NCC(c2cccs2)N2CCOCC2)c1` (stereo not drawn) as the compound, how does the Potency read?
**A.** inconclusive [inhibitor, single point]

**Q.** Which Potency does the source give for `O=C(Nc1ccncc1)Nc1ccccc1Cl` here?
**A.** inconclusive [inhibitor, full curve, poor fit]

**Q.** With `CN(CCCC(=O)Nc1nccs1)S(=O)(=O)c1ccc(Cl)cc1` as the compound, how does the Potency read?
**A.** inconclusive [inhibitor, partial curve, poor fit]

**Q.** With `CCC1C(c2ccccc2)NC(c2ccccc2)CC1(O)c1ccc(F)cc1` (stereo not drawn) as the compound, how does the Potency read?
**A.** active: 10.4 µM

**Q.** For `Cc1ccc(OCCC(=O)OCC(=O)Nc2ccc(Cl)cn2)cc1`, which “activity change, negative = inhibition” value is on record?
**A.** inactive: 12.6%

**Q.** For `CCc1ccc(OCC(=O)NN2Cc3ccccc3C2=N)cc1`, which “activity change, negative = inhibition” value is on record?
**A.** inactive: 16.7%

**Q.** For `COc1ccc(S(=O)(=O)N(C)CC(=O)N2CCN(C)CC2)cc1Cl`, which “activity change, negative = inhibition” value is on record?
**A.** inactive: 19%

**Q.** With `CCCn1c(C2CCCN2c2nc(-c3ccc(C)cc3)cs2)nc2ccccc21` (stereo not drawn) as the compound, how does the Potency read?
**A.** inconclusive [inhibitor, partial curve, poor fit]

**Q.** Which “activity change, negative = inhibition” value does the source give for `COc1ccccc1C(=O)NC(C(=O)NCCc1nc2ccccc2[nH]1)=C(C)C` here?
**A.** inactive: -22.9%

**Q.** With `Cc1ccc(C(=O)N/C(=C\c2ccco2)C(=O)NCC2CCCO2)cc1C` (stereo not drawn) as the compound, how does the Potency read?
**A.** inconclusive [inhibitor, partial curve, poor fit]

**Q.** Which Potency does the source give for `Cc1cccc(-c2noc(CN(C)S(=O)(=O)c3cc(Cl)ccc3Cl)n2)c1` here?
**A.** inconclusive [inhibitor, single point]

**Q.** For `COc1ccc(C(=O)Nc2ccc3oc(-c4cccnc4)nc3c2)cc1OC`, which Potency is on record?
**A.** inconclusive [inhibitor, single point]

**Q.** With `COc1ccc(NC(=O)Nc2ccc(F)cc2)cn1` as the compound, how does the “activity change, negative = inhibition” value read?
**A.** inactive: 29.7%

**Q.** With `C=C1CC(C)OC(c2ccccc2OCC(O)CN2CCCCC2)C1` (stereo not drawn) as the compound, how does the Potency read?
**A.** active: 14.7 µM

**Q.** For `CSc1nsc(/C=C/Nc2ccc(C(=O)O)cc2)c1C#N`, which Potency is on record?
**A.** inconclusive [inhibitor, full curve, poor fit]

**Q.** For `Cc1ccc(N(C)S(=O)(=O)c2ccc3c(c2)CC(C)N3C(=O)C2CC2)cc1` (stereo not drawn), which Potency is on record?
**A.** inconclusive [inhibitor, single point]

**Q.** With `Clc1cccc(Cl)c1CSc1nnc2ccccn12` as the compound, how does the “activity change, negative = inhibition” value read?
**A.** inactive: 33%

**Q.** Which Potency does the source give for `CCOC(=O)C1CCCN(C(=O)c2ccc3nc(-c4ccc(OC)c(OC)c4)c(-c4ccc(OC)c(OC)c4)nc3c2)C1` (stereo not drawn) here?
**A.** inconclusive [inhibitor, full curve]

**Q.** Which Potency does the source give for `COc1ccc(CCNC(=O)c2cc(=O)c3ccc(C)cc3o2)cc1OC` here?
**A.** inconclusive [inhibitor, single point]

**Q.** With `O=[N+]([O-])c1ccc(C2=NN(c3ccccc3)C(c3ccco3)C2)cc1` (stereo not drawn) as the compound, how does the Potency read?
**A.** inconclusive [inhibitor, single point]

**Q.** For `O=c1nc2sc3ccccc3n2c(=O)n1-c1ccc(Cl)cc1`, which Potency is on record?
**A.** inconclusive [inhibitor, partial curve, poor fit]

**Q.** With `N#C/C(=C\C=C\c1ccccc1[N+](=O)[O-])c1nc(-c2ccc3c(c2)OCO3)cs1` as the compound, how does the “activity change, negative = inhibition” value read?
**A.** inactive: 19.5%

**Q.** For `CCn1c2ccccc2c2cc([N+](=O)[O-])ccc21`, which Potency is on record?
**A.** inconclusive [inhibitor, single point]

**Q.** For `COc1ccc(/C=C/C(=O)Nc2nc(C)c(C(=O)N(C)C)s2)cc1OC`, which “activity change, negative = inhibition” value is on record?
**A.** inactive: 10.4%

**Q.** With `CCCCNc1c(C(=O)OCC)c(C)nc2c1cnn2CC` as the compound, how does the Potency read?
**A.** inconclusive [inhibitor, partial curve]
